About 2,200 (0.71%) of roughly 310,000 compounds showed an effect of 50% or more. Effects have a minus sign here. Some of the results follow.
Molecular target: human ether-à-go-go-related gene (hERG) potassium channel (human, UniProt Q12809)
Experiment: primary screen, population patch clamp on CHO cells stably expressing hERG

Sequence of human ether-à-go-go-related gene (hERG) potassium channel (Q12809 whole entry, looked up): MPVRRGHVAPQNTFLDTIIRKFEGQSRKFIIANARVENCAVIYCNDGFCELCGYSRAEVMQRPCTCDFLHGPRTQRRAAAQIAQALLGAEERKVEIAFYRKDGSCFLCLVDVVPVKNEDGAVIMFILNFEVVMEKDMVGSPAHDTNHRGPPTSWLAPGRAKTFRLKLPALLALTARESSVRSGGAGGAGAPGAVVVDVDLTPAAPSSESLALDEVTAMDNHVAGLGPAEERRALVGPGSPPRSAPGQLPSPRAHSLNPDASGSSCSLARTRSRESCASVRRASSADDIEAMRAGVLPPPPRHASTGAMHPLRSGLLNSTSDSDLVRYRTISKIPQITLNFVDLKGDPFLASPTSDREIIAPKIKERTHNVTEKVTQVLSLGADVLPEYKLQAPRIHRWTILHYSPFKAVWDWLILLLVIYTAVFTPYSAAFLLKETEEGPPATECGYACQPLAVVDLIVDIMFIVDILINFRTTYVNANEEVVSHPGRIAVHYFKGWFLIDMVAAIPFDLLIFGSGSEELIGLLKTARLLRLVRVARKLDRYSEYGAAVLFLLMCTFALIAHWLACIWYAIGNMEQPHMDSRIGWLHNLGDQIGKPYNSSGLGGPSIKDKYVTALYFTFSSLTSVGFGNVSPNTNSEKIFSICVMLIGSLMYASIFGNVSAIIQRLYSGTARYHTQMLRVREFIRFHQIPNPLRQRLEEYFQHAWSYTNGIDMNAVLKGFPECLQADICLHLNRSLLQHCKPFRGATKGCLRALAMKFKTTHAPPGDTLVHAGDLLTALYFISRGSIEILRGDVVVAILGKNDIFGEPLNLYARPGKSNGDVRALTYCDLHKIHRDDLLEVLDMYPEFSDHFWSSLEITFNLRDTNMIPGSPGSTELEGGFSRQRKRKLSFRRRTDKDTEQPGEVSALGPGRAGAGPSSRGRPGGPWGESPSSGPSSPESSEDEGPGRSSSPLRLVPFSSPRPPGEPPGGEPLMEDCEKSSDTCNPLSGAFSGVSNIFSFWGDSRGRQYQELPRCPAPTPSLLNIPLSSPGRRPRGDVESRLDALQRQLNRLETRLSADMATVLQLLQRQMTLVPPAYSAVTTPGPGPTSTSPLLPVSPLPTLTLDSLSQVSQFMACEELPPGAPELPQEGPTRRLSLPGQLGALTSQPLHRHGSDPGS

Structure (SMILES) | hERG current change (%, negative = inhibition) at 1uM [%]
Cn1c(=S)n(C)c2ccccc21 | 12.5
CCc1nnc(NC(=O)c2nc(S(=O)(=O)Cc3ccccc3)ncc2Cl)s1 | 5.43
COCCCNC(=O)C1CCC(=O)N(c2ccc3c(c2)OCO3)C1c1ccc(OC)cc1 (centres unmarked) | 12.8
O=C(NC1CC1)C1CCN(S(=O)(=O)c2cc(Cl)ccc2Cl)CC1 | 16.1
Cc1cc(C)c2c(N)c(C(=O)c3cccc(Cl)c3)sc2n1 | 3.69
CC(=O)N[C@H]1[C@H](OCc2ccccc2F)O[C@H](COC(C)=O)[C@@H](OC(C)=O)[C@@H]1OC(C)=O | 13.8
Cn1ccnc1C(OC(=O)c1ccccc1)C(F)(F)F (centres unmarked) | 19.2
Cc1cccc(N=C2NC(=O)/C(=C/c3cccn3C)S2)c1 | 15.3
COC(=O)C(Cc1ccccc1)NC(=O)CCc1c[nH]c2ccccc12 (centres unmarked) | 9.86
COc1ccc(CCNC(=O)c2ccccc2NS(=O)(=O)c2c(F)cccc2F)cc1 | 16.9
CNc1ccc(Br)cc(C(=O)/C=C/c2ccc3c(c2)OCO3)c1=O | 5.28
CC(C)c1ccc(C(=O)NCCCN(C)C)cc1 | 9.58
COc1ccc(C(CC(=O)Nc2cc([N+](=O)[O-])ccc2OC)c2ccccc2)cc1 (centres unmarked) | 11.9
Cn1cc(C(=O)NCc2ccc(Cl)cc2)c(=O)c2cc(S(=O)(=O)N3CCOCC3)ccc21 | 12
CCc1cc(=O)oc2cc(OCC(=O)N3C[C@H]4C[C@@H](C3)c3cccc(=O)n3C4)ccc12 | 12.3
CCOCCn1c(N(C)Cc2ccccc2)nc2c1c(=O)[nH]c(=O)n2C | -6.13
CCn1ccnc1CNC(=O)CC1C(=O)NCCN1CCCc1ccccc1 (centres unmarked) | 6.92
Cc1ccc(N(Cc2ccc(C(=O)Nc3ccccc3C(=O)NCc3ccco3)cc2)S(C)(=O)=O)cc1C | -2.11
O=C(COC(=O)C1CCC1)Nc1cccc(Cl)c1 | 5.76
CC(=O)C1=C(O)C(=O)N(Cc2ccco2)C1c1ccc2c(c1)OCO2 (centres unmarked) | 8.86
O=C(NNc1nc2ccc(F)cc2s1)c1cccc(F)c1 | 29.4
Cc1cc(C(C)(C)C)oc1C(=O)O | 9.58

Structure (SMILES) | hERG current change (%, negative = inhibition) at 1uM [%]
CCOC(=O)N/N=C/c1ccccc1OCc1ccc(Cl)cc1 | 18.7
C=CCn1c(=O)c(C(=O)NC(C)c2ccccc2)c(O)c2ccccc21 (centres unmarked) | 12.3
O=C(COC(=O)C12CC3CC(CC(O)(C3)C1)C2)N1CCN(S(=O)(=O)c2ccc(Cl)cc2)CC1 | 8.52
CCc1nc2ccccc2nc1N1CCN(S(=O)(=O)c2ccc(Cl)cc2)CC1 | 16.2
O=[N+]([O-])c1ccc(-c2ccc(/C=N/Nc3nc(N4CCCC4)nc(N4CCCC4)n3)o2)cc1 | 20.4
O=C(/C=C/c1cccc(F)c1)NCc1ccc2c(c1)OCO2 | 11.8
COCCn1c(C)cc(C(=O)COC(=O)c2n[nH]c3ccccc23)c1C | 7.23
CCc1ccc(S(=O)(=O)Nc2ccc(O)c3ccccc23)cc1 | 0.287
O=C(COC(=O)/C=C/c1ccco1)Nc1ccccc1 | 6.35
CSCCC(NC(=O)c1ccccc1Br)C(=O)N1CCCC(C(F)(F)F)C1 (centres unmarked) | 0.221
c1ccc(CSc2nnc(-c3ccccn3)n2-c2ccccc2)cc1 | 3.32
Cn1nccc1C(=O)N/N=C/c1c(O)ccc2ccccc12 | 9.12
CCC(C)(O)c1[nH]c2ccc(C#N)cc2c1C (centres unmarked) | 15.3
COc1ccccc1Oc1ccc2c(c1)C(=O)N(c1ccc(C)cc1)C2=O | 12.1
CCC(CC)c1nn2c(N)c(/C=C3\C(C)=Nc4ccccc43)c(=O)nc2s1 | 15
O=C(NCc1cccnc1)c1ccc(Cl)c(S(=O)(=O)N2CCOCC2)c1 | 0.269
[O-][n+]1cccc(C(O)c2ccccc2)c1 (centres unmarked) | 19.5
O=C([C@H](Cc1ccccc1)NS(=O)(=O)c1ccc(Cl)cc1)N1CC[C@@]2(O)CCCC[C@H]2C1 | 10.4
c1cnc(N2CCN(Cc3c[nH]c4ccccc34)CC2)nc1 | -0.223
CCn1c2ccccc2c2nnc(SCC(=O)NCCOC)nc21 | 5.66
CCCCn1nc(C(=O)Nc2ccc(-n3cnnn3)cc2)c2ccccc2c1=O | 1.01
COc1cccc(C(=O)Nc2ccc(Oc3cccc(C(F)(F)F)c3)nc2)c1 | 11

— paper PMC4336329 (PLoS ONE, 2015)
